Test results: PubChem BioAssay (NCATS)
Several values for one entry are separate records, joined by “and”; a condition that tells them apart may be missing. Equal entries are not always repeated. The inconclusive results got no clear call from the source; some entries with a clear call stand among them for comparison. For some of these results: A potency beside an inconclusive call is a rough fit, not a confirmed value. Activity calls are given as the source filed them. Calls come from the whole dose curve; as a rule, active = well fitted curve in the direction sought with a large enough effect; inconclusive = small, poorly fitted or top-dose-only effect, or another doubt; inactive = no such curve, though single readings can be large; an effect the other way counts as inactive or inconclusive.

Assays:
[1] = Viability qHTS for spleen associated tyrosine kinase inhibitor (SYKi) naive MV4-11 cells (AID 1963823); conditions: MV4-11 AML viability, CellTiter-Glo luminescence, 72 h; viability (% of control): at 45 µM (top of the series); note: nearly all actives have a fitted effect of over 40% in size; note: potency is the fitted concentration of half-maximal effect
Procedure, shortened: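 Cells: MV4-11, SYK inhibitor naive, 500 per well. Treatment: library compounds, 72 hr, 37 C, 5% CO2. Read-out: CellTiter-Glo luminescence after 10 min RT.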

[2] = Viability qHTS for spleen associated tyrosine kinase inhibitor (SYKi) drug resistant MV4-11 cells (AID 1963824); note: nearly all actives have a fitted effect of over 35% in size; note: potency is the fitted concentration of half-maximal effect
Procedure, shortened: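 CellTiter-Glo luminescence, read 10 min after reagent addition, reports viability after a 72 hr compound exposure. Cells are an MV4-11 line made resistant to SYK inhibition, seeded at 500 per well onto compound-containing plates.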

[3] = Quantitative highthroughput screen to assess conditional lethalithy of NOMO1 cells grown in RPMI1640 with dialyzed fetal bovine serum (RPMI+ds) (AID 1963877); note: nearly all actives have a fitted effect of over 30% in size; note: potency is the fitted concentration of half-maximal effect;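 for Viability: 100% = DMSO control wells and 0% = empty wells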
Procedure, shortened: (§1)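 Each medium arm—HPLM with 10% dialyzed FBS, or RPMI1640 with 5 mM glucose and 10% untreated or dialyzed FBS—was screened against an 11-point, 3-fold compound titration for 48 h at 37 °C, with CellTiter-Glo luminescence as endpoint.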

[4] = Quantitative highthroughput screen to assess conditional lethalithy of P12 Ichikawa cells grown in Human Plasma-Like Medium with dialyzed fetal bovine serum (HPLM+ds) (AID 1963879); conditions: Potency: viability; note: nearly all actives have a fitted effect of over 35% in size
Procedure, shortened: as §1

[5] = Quantitative highthroughput screen to assess conditional lethalithy of P12 Ichikawa cells grown in RPMI1640 with dialyzed fetal bovine serum (RPMI+ds) (AID 1963880); conditions: Potency: P12-Ichikawa viability; note: nearly all actives have a fitted effect of over 35% in size; note: potency is the fitted concentration of half-maximal effect;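 for Viability: 100% = DMSO wells and 0% = empty wells on each plate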
Procedure, shortened: as §1

[6] = Quantitative highthroughput screen to assess conditional lethalithy of P12 Ichikawa cells grown in RPMI1640 with untreated serum (RPMI+s) (AID 1963881); conditions: Potency: viability; note: nearly all actives have a fitted effect of over 35% in size; note: potency is the fitted concentration of half-maximal effect;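 for Viability: 100% = DMSO wells and 0% = empty wells without cells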
Procedure, shortened: as §1

[7] = Quantitative highthroughput screen to assess conditional lethalithy of SEM cells grown in Human Plasma-Like Medium with dialyzed fetal bovine serum (HPLM+ds) (AID 1963882); note: nearly all actives have a fitted effect of over 35% in size; note: potency is the fitted concentration of half-maximal effect
Procedure, shortened: as §1

[8] = Quantitative highthroughput screen to assess conditional lethalithy of SEM cells grown in RPMI1640 with unreated serum (RPMI+s) (AID 1963883); conditions: SEM B-ALL cells, CellTiter-Glo viability, 48 h; viability: at 45.8 µM (top of the series); note: nearly all actives have a fitted effect of over 35% in size; note: potency is the fitted concentration of half-maximal effect;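 for Viability: 100% = DMSO wells and 0% = empty wells without cells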
Procedure, shortened: as §1

[9] = Quantitative highthroughput screen to assess conditional lethalithy of SEM cells grown in RPMI1640 with dialyzed fetal bovine serum (RPMI+ds) (AID 1963884); conditions: SEM B-ALL cells, RPMI+dialyzed FBS, CellTiter-Glo viability, 48 h; viability: at 45.8 µM (top of the series); note: nearly all actives have a fitted effect of over 35% in size; note: potency is the fitted concentration of half-maximal effect;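 for Viability: 100% = DMSO control wells and 0% = empty wells without cells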
Procedure, shortened: as §1

[10] = Quantitative highthroughput screen to assess conditional lethalithy of NOMO1 cells grown in Human Plasma-Like Medium with dialyzed fetal bovine serum (HPLM+ds) (AID 1963878); conditions: NOMO1 AML cells in HPLM+ds, CellTiter-Glo viability, 48 h; viability: at 45.8 µM (top of the series)
Procedure, shortened: as §1

[11] = Cellular viability qHTS for adrenocortical cancer (ACC) cell line SW-13 (AID 1963989); conditions: SW-13 ACC cells viability, CellTiter-Glo, 48 h; activity (max response): stronger effect = lower value; note: nearly all actives have a fitted effect of over 65% in size; note: potency is the fitted concentration of half-maximal effect;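 for activity (max response): cells grown in serum-free medium with ITS supplement; % is set by controls: 0 for no effect and ±100 for the full control effect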
Procedure, shortened: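 Here, serum-free SW-13 cultures were dosed up to 46 uM. Following 48 h, ATP-dependent luminescence (CellTiter-Glo) reported viable cells, and logistic modeling produced IC50 values.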

[12] = Cellular viability qHTS for adrenocortical cancer (ACC) cell line NCI-H295R (AID 1963990); conditions: CellTiter-Glo ATP luminescence, 48 h; activity change, negative = viability loss: at 46.1 µM (top of the series); note: nearly all actives have a fitted effect of over 60% in size; note: potency is the fitted concentration of half-maximal effect;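 for activity change, negative = viability loss: 0% = DMSO only wells and -100% = full killing with cytotoxic reference compound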
Procedure, shortened: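 Viability of NCI-H295R after 48 h of treatment (final up to 46 uM) measured through cellular ATP luminescence.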
Tags give direction and shape of the fitted curve.

C[C@]12CC[C@@H]3c4ccc(O)cc4CC[C@H]3[C@H]1[C@@H](O)[C@@H](O)[C@H]2O
Potency [1]: inconclusive: 33.2 µM [cytotoxic, single point]
Potency [2]: inconclusive: 26.3 µM [cytotoxic, single point]
Potency [3]: inactive
Potency [4]: inactive
Potency [5]: inactive
Potency [6]: inactive
Potency [7]: inconclusive: 14.8 µM [cytotoxic, partial curve, poor fit]
Potency [8]: inconclusive: 37.2 µM [cytotoxic, single point]
Potency [9]: inconclusive: 18.7 µM [cytotoxic, partial curve, poor fit]

CC(C)(C)c1nc(-c2cccc(NS(=O)(=O)c3c(F)cccc3F)c2F)c(-c2ccnc(N)n2)s1
Potency [1]: active: 1.84 µM and inconclusive: 16.6 µM [cytotoxic, partial curve]
Potency [2]: inconclusive: 0.731 µM [cytotoxic, full curve]
Potency [3]: inconclusive: 9.35 µM [cytotoxic, partial curve]
Potency [10]: active: 2.96 µM
Potency [11]: inconclusive: 15.8 µM [cytotoxic, partial curve]
Potency [12]: inconclusive: 28.2 µM [cytotoxic, single point]

COc1ccc(CCC(=O)Nc2nc3ccc(Cl)cc3s2)cc1OC
Potency [1]: inconclusive: 11.8 µM [cytotoxic, full curve, poor fit]
Potency [2]: inconclusive: 13.2 µM [cytotoxic, partial curve, poor fit]
Potency [3]: inactive
Potency [5]: inactive
Potency [7]: inactive
Potency [8]: inactive
Potency [12]: inconclusive: 4.47 µM [cytotoxic, full curve]

Cc1coc2c1C(=O)C(=O)c1c-2ccc2c(C)cccc12
Potency [1]: inconclusive: 0.731 µM [cytotoxic, full curve, poor fit]
Potency [2]: inconclusive: 1.84 µM [cytotoxic, full curve]
Potency [3]: inactive
Potency [7]: inactive
Potency [8]: inconclusive: 8.33 µM [cytotoxic, full curve, poor fit]
Potency [9]: inactive

COC(=O)C[C@](O)(CCCC(C)(C)O)C(=O)O[C@@H]1C(OC)=C[C@]23CCCN2CCc2cc4c(cc2[C@H]13)OCO4
Potency [1]: inconclusive: 0.0263 µM [cytotoxic, full curve]
Potency [2]: inconclusive: 0.0417 µM [cytotoxic, full curve]
Potency [3]: inactive
Potency [6]: inactive
Potency [7]: inactive
Potency [8]: inactive

NNc1nncc2ccccc12
Potency [1]: inconclusive: 8.2 µM [cytotoxic, partial curve, poor fit] and inconclusive: 33.2 µM [cytotoxic, single point]
Potency [2]: inconclusive: 3.26 µM [cytotoxic, partial curve] and inconclusive: 23.5 µM [cytotoxic, single point]
Potency [3]: inactive
Potency [8]: inconclusive: 0.0017 µM [rising, full curve, poor fit]
Potency [9]: inconclusive: 0.0015 µM [rising, full curve, poor fit]
Potency [12]: inactive

Cc1ccnc(NS(=O)(=O)c2ccc(NC(=O)Nc3ccc(S(=O)(=O)Nc4nccc(C)n4)cc3)cc2)n1
Potency [1]: inactive
Potency [2]: inactive
Potency [3]: active: 0.469 µM
Potency [5]: active: 332 nM
Potency [6]: active: 469 nM

NS(=O)(=O)c1cc2c(cc1Cl)NC=NS2(=O)=O
Potency [1]: inactive
Potency [2]: inactive
Potency [3]: inactive
Potency [5]: inactive
Potency [8]: inactive
activity (max response) [11]: inactive: 2.09% and inactive: 0.632%
Potency [12]: inactive

N#CC(c1ccnc(NCCc2cccnc2)n1)c1nc2ccccc2s1 (centres undefined)
Potency [1]: inconclusive: 2.95 µM [cytotoxic, full curve]
Potency [2]: inconclusive: 2.95 µM [cytotoxic, full curve]
Potency [3]: inactive
Potency [8]: inactive
Potency [11]: active: 25.1 µM
Potency [12]: inconclusive: 35.5 µM [cytotoxic, single point]

O=c1c(O)c(-c2cc(O)c(O)c(O)c2)oc2cc(O)cc(O)c12
Potency [1]: inconclusive: 23.5 µM [cytotoxic, single point]
Potency [2]: inconclusive: 18.6 µM [cytotoxic, partial curve]
Potency [3]: inactive
Potency [7]: inactive
Potency [9]: inactive
Potency [12]: inconclusive: 35.5 µM [cytotoxic, single point]
